Assay results published in paper PMC4336329 (PLoS ONE, 2015).
The campaign covered roughly 310,000 compounds. About 14,000 (4.5%) showed an effect of 50% or more. The effect is printed as a negative number. The list shows a part of the results.

target: human ether-à-go-go-related gene (hERG) potassium channel (human, UniProt Q12809); assay: primary screen, population patch clamp on CHO cells stably expressing hERG
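Note: peak tail current of the secondary pulse compared with the same well before compound.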

Chain of human ether-à-go-go-related gene (hERG) potassium channel (Q12809 whole entry, looked up): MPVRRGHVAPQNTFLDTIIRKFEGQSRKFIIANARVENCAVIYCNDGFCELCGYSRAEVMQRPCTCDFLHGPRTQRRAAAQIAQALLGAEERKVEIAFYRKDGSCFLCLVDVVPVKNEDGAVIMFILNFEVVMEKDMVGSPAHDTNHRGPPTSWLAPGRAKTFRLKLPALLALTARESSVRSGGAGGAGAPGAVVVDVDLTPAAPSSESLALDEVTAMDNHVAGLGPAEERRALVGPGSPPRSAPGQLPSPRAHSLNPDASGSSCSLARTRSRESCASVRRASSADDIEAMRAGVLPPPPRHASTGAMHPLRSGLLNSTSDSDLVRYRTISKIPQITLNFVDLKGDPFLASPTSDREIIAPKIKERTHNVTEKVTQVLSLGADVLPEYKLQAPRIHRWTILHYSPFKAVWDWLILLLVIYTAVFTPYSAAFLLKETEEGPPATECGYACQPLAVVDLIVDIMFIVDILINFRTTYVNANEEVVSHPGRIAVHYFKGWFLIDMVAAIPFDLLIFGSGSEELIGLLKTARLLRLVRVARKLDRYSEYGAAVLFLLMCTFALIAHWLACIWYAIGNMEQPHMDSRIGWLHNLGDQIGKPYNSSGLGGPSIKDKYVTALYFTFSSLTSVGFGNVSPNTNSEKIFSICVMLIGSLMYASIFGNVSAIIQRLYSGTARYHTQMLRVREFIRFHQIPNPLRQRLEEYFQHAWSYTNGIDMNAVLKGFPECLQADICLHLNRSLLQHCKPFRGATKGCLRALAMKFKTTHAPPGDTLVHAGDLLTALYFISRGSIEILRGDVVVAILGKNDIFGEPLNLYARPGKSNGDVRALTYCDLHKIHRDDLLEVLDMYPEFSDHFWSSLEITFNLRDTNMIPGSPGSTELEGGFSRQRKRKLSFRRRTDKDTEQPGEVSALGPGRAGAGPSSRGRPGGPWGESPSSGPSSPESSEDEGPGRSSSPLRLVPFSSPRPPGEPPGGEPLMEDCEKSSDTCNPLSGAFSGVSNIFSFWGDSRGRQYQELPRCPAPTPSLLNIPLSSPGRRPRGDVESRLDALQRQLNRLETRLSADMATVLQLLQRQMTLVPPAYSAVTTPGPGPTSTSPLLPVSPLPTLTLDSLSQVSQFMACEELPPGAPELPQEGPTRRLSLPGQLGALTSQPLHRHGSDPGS

Structure (SMILES)	hERG current change (%, negative = inhibition) at 10uM
CCCCNC(=O)CSc1nc(O)c(Cc2ccc(OC)cc2)c(=O)[nH]1	6.28%
CCOc1ccc(C(=O)NN2C(=S)NC(C)(C)C=C2C)cc1	15.1%
CCOC(=O)c1c(NC(=S)N2CCOCC2)sc(C)c1C	15.6%
Cc1nc2sc3c(c2c(=O)[nH]1)CCC3	12.1%
Cc1nc(NCCc2ccccc2)c2oc3ccccc3c2n1	-3.13%
COCCn1c(SC)nnc1-c1c[nH]c2ccccc12	17.1%
O=C(N/C(=C/c1ccco1)C(=O)N1CCOCC1)c1cccs1	1.91%
CC(C)c1nnc(NC(=O)CCC(=O)N2CCN(c3ccccc3F)CC2)s1	7.7%
CC(C)(C)c1ccc(NC(=O)COc2ccc(-n3ccnc3)cc2)cc1	-56.5%
CCN(CC)c1ccc(C=C(c2nnnn2-c2ccccc2)c2nnnn2-c2ccccc2)cc1	1.36%
Cc1ccc2c(c1)Oc1ccc([N+](=O)[O-])cc1C(=O)N2	-18.4%
Cc1ccc(S(=O)(=O)Nc2ccc(NC(=O)Nc3cccc(C(F)(F)F)c3)cc2)cc1	15.4%
CCOC(=O)CSc1nc(N)c(C#N)c(-c2cccs2)c1C#N	15.1%
COc1ccc(S(=O)(=O)N2CCN(C3CCCC(C)C3)CC2)cc1.O=C(O)C(=O)O (stereo not drawn)	-16.7%
O=C(Nc1cc(Cl)cc(Cl)c1)c1coc(=O)c(Br)c1	-1.63%
CCOC(=O)CN(C(=O)CNC(=O)c1ccco1)C(C(=O)NC1CCCCC1)c1cccnc1 (stereo not drawn)	12.2%
O=C1COc2ccc(S(=O)(=O)N3CCC(C(=O)NCc4ccccc4)CC3)cc2N1	5.81%
CN(C(=O)CC1C(=O)NCCN1Cc1ccccc1F)C1CCOCC1 (stereo not drawn)	11.1%
Cc1c(C(=O)NNS(=O)(=O)c2ccccc2)sc(=S)n1C	-2.34%
COC(=O)c1ccccc1S(=O)(=O)N1CCC(C(=O)OCc2cccc(OC)c2OC)CC1	-13.5%
CCc1ccc(OCC(=O)NC(NC(=S)Nc2ccccc2C)C(Cl)(Cl)Cl)cc1 (stereo not drawn)	0.311%
CC(C)C[C@H](NC(=O)Nc1ccc(S(N)(=O)=O)cc1)C(=O)O	13%
CCn1cc(-c2n[nH]c(=S)n2-c2ccc(C)cc2Br)c(=O)c2ccc(C)nc21	25.4%

Structure (SMILES)	hERG current change (%, negative = inhibition) at 10uM
CCOc1nc(C)ccc1-c1noc(CC)n1	15.6%
Cc1cc(C)cc(OCC(=O)OCC(=O)N2CC(=O)Nc3ccccc32)c1	-9.41%
COC(=O)C(Nc1nccs1)(OC)C(F)(F)F (stereo not drawn)	5.34%
O=C1/C(=C/c2cccs2)CCc2ccccc21	-11.9%
CC(=O)NS(=O)(=O)c1ccc(NC(=O)c2ccc(-n3nc(C)cc3C)cc2)cc1	3.33%
O=C(Nc1cccc(S(=O)(=O)N2CCCCC2)c1)C1=NN(c2ccccc2)C(=O)CC1	-36.4%
CC(=O)c1c(C)[nH]c(C(=O)NCCc2c[nH]c3ccccc23)c1C	12.3%
O=C(NN=C1CCCC1)c1ccc(O)cc1O	6.98%
O=C(Cc1ccccc1)Nc1ccc(N2CCOCC2)cc1N1CCOCC1	-0.646%
COc1ccc(Cl)cc1NC(=O)c1[nH]nc(OC)c1[N+](=O)[O-]	-13.3%
CC(C)(CN1CCc2ccccc2C1)NS(=O)(=O)c1ccccc1	-1.6%
CCOc1ccc2nc(NC(=O)CCC(=O)c3cccs3)sc2c1	-2.61%
COc1cc(/C=C/c2ccc3cccc([N+](=O)[O-])c3n2)ccc1OCC(=O)O	15.1%
Cc1ncoc1C(=O)N1CCCC(C(=O)c2ccc(-c3ccccc3)cc2)C1 (stereo not drawn)	-5.8%
C[N+](C)(C)CC#CCN1CCCC1=O.[I-]	4.02%
CC(=O)Nc1ccc(S(=O)(=O)N(C)CC(=O)OCC(=O)N(C)c2ccccc2)cc1	22%
Cc1cc(=O)[nH]c(SCC(=O)Nc2ccc(S(N)(=O)=O)cc2)n1	6.29%
CCCCn1c(N)c(N(CCC(C)C)C(=O)COC(=O)c2ccco2)c(=O)[nH]c1=O	17.5%
Cc1nc(N2CCOCC2)[nH]c(=O)c1CCC(C)C	-6.57%
Cc1cccc(COc2ccc(/C=C3/C(=O)N(C)C(=S)N3C)cc2)c1	15.7%
COc1ccc(Cl)cc1NC(=O)C1CCCN(c2ncnc3c2nc2n3CCCCC2)C1 (stereo not drawn)	-37.6%
CCc1c(C)sc(NC(=O)c2ccoc2C)c1C(N)=O	-5.04%
Cc1c(-c2nnc(SCC(=O)O)n2-c2ccccc2Br)nnn1-c1ccccc1.O	7.3%

Structure (SMILES)	hERG current change (%, negative = inhibition) at 10uM
O=C(CN1CCc2ccccc2C1)Nc1ccccc1F	3.13%
COc1ccc(OC)c(NC(=O)C(=S)NC2CCCCC2)c1	22.3%
CC(C)OC(=O)c1c(N)sc2c1CCCC2	0.961%
CCn1ncc(/C=N/NC(=O)c2ccc3c(c2)OCO3)c1C	11.5%
C[C@H](NC(=O)c1nc[nH]c1C(=O)NCC(=O)OCc1ccccc1)c1ccccc1	-10%
COc1ccc(/C=N/NC(=O)c2cc(-c3cccnc3)nc3ccccc23)c(OC)c1	7.71%
CCC1C(=O)NCCN1C(=O)c1ccc2nc(Cc3cccc(Cl)c3)oc2c1 (stereo not drawn)	-18.6%
O=C1NC(c2ccco2)Nc2ccccc21 (stereo not drawn)	8.81%
COc1ccccc1CNC(=O)CCSCc1cccc(Cl)c1	-9.48%
N#C/C(=C/c1ccc(N2CCCCCC2)o1)c1ccc(Cl)cc1	-3.68%
COc1ccc(CN2Cc3cccc4c3[C@@H](CC2=O)[C@H](O)[C@H](O)C4)cc1	24.1%
CCc1ccccc1N(CC)C(=O)C1CCN(c2ncnc3c2nc2n3CCCCC2)CC1	-25.1%
CSc1nc2ccc(Br)cc2[nH]1	10.9%
O=P(OC1CCCCC1)(OC1CCCCC1)C(O)c1ccc(Cl)cc1Cl (stereo not drawn)	-11.4%
O=C(Nc1nc(-c2ccc(Cl)cc2)cs1)C1=COCCO1	-15.7%
Cc1cccc(OCc2nnc(-c3ccc(F)cc3)o2)c1	-12.8%
O=C(Nc1c2c(nn1-c1ccccc1)CS(=O)C2)c1ccco1 (stereo not drawn)	7.5%
Cc1ccn2c(c1)nc(=S)n2C(=O)c1ccco1	-0.888%
O=C(CCc1ccccc1)Nc1cccc(NC(=O)CCc2ccccc2)c1	-13.4%
Cc1nc(N2CCN(C(=O)c3ccco3)CC2)c(C#N)c2c1CCCC2	3.21%
CCCCOC(=O)Nc1cc(OC)c(Cl)cc1OC	-10.5%
O=C(Nc1cccc2ccccc12)OCc1cncs1	-8.17%
COC(=O)c1sc(S(=O)(=O)NCCC(=O)O)c(C(=O)OC)c1C	5.17%

Structure (SMILES)	hERG current change (%, negative = inhibition) at 10uM
N#Cc1ccc(Oc2nc(C#N)cc(-c3ccccc3)n2)cc1	-8.65%
COc1ccc(NC(=S)SC)cc1OC	6.44%
O=C(Nc1ccccc1C(=O)Nc1cccnc1)c1ccccc1	0.583%
COc1ccc(C2=Nc3ccc(Br)cc3C(c3ccccc3)N2CC(=O)NN)cc1 (stereo not drawn)	-38.9%
CC(C)C(C)NC(=O)CN1C(=O)NC2(CCc3ccccc3C2)C1=O (stereo not drawn)	13.1%
CCOc1nc(Nc2ccc(Cl)cc2)nc(OCC)n1	4.01%
O=C(CNC(=O)Cc1ccccc1)NCc1cccs1	9.32%
CCc1nn(-c2cc(Oc3ccccc3)nc(-c3ccccc3)n2)c(N)c1C#N	16.8%
Cc1ccc(C(=O)NCCN2CCOCC2)cc1S(=O)(=O)N1CCCCC1	-20.7%
O=C(Nc1cccc(-c2nnc(-c3ccccc3)o2)c1)c1ccc(Br)o1	-30.8%
O=C(Nc1ccc(Nc2ccccc2)cc1)c1cccc(F)c1	18.6%
O=C(C[n+]1cc(-c2ccc(F)cc2)n2c1CCC2)c1cccs1.[Br-]	2.11%
N#C/C(=C(\O)c1cc(Cl)sc1Cl)c1nc2ccccc2[nH]1	17.1%
CC1=C(C(=O)OC(C)C)C(c2cccnc2)C2=C(CCCC2=O)N1 (stereo not drawn)	6.07%
N#Cc1ccc(CSc2nnc(NC(=O)C3CC(=O)N(c4ccc5c(c4)OCCO5)C3)s2)cc1 (stereo not drawn)	3.99%
C=CCn1c(-c2cc(OC)c(OC)c(OC)c2)n[nH]c1=S	10.5%
CN(c1ccccc1)c1nc(N)c([N+](=O)[O-])c(Nc2ccccc2F)n1	23%
Cc1ccc(CSc2nc(N)cc(=O)[nH]2)cc1	14.2%
CCn1c2ccccc2c2cc(NC(=O)c3ccccc3-c3ccccc3C(=O)O)ccc21	11.2%
CCOC(=O)CC(=O)CSc1nc2sc(C)cc2c(=O)n1Cc1ccco1	-51.5%
CCOC(=O)N1CCN(C(c2ccc(Cl)cc2)c2sc3nc(C)nn3c2O)CC1 (stereo not drawn)	-42.9%
